Each structure is given as a SMILES string. The campaign covered roughly 52,000 compounds. About 4,300 (8.3%) were called active. Rule as the data show it: active = survival mostly below about 52% (no sharp cut-off); inactive = mostly above about 56%. The list shows a part of the results.

This assay has as its system DeltatarO mutant. Nature of the assay: growth inhibition of S. aureus wild type versus tarO mutant, primary screen, teichoic acid synthesis inhibitors, RN4220, OD600 (AID 463173). The conditions noted are these: OD600, 18 h, hits give low values, screened at 18.75 µg/mL (by protocol).
Consider `CCC(C(=O)Nc1cc(OC)ccc1OC)n1nc(-c2ccccc2)c2c(c1=O)CCCC2` (configuration not stated), for which the survival is active: 35%.

On to `CN(C)S(=O)(=O)N(CC(=O)NCCSc1ccc(Cl)cc1)c1ccccc1`, for which the survival is inactive: 50%.

`Cc1ccc(-n2ncc(C(=O)N3CCN(c4cccc(C)c4C)CC3)c2C2CCNCC2)c(C)c1`: the survival is inactive: 83%.

As to `CCOC(=O)c1cc(-c2ccc(F)cc2)n(CCC(=O)NCc2ccc(C)cc2)c1C`, the survival was inactive: 77%.

As for `COc1ccc(Br)cc1CC1C(=O)Nc2ccccc21` (configuration not stated), the survival is inactive: 62%.

Take `O=C(COc1ccccc1F)Nc1ccc2nc(SCc3ccccc3)sc2c1`: the survival is inactive: 83%.

On to `CCC(=O)N1CCc2cc(S(=O)(=O)NCCC(=O)Nc3cccc(SC)c3)ccc21`, for which the survival was inactive: 85%.

Regarding `COc1ccc2oc(=O)c(-c3nc4ccc(C)cc4[nH]3)cc2c1`, the survival is inactive: 107%.

With `Cc1ccc(NC(c2cccc(Cl)c2)c2nnc(-c3ccccc3)o2)cc1F` (configuration not stated), the survival was inactive: 99%.

As for `CCOC(=O)C1CCN(C(=O)Cn2nc(CC)n3c(cc4occc43)c2=O)CC1`, the survival was inactive: 92%.

As to `CCCCc1nn2c(C)c(-c3ccc(OCC)cc3)nc2s1`, the survival was inactive: 103%.

Turning to `Cc1cc(Cl)ccc1NS(=O)(=O)c1cc2[nH]c(=O)c(=O)[nH]c2cc1C`, the survival is inactive: 93%.

As to `COc1ccc(-c2nc(N)n(C(C)=O)n2)cc1`, the survival was inactive: 105%.

Take `Cc1ccc(-n2c(=O)[nH]c3sc4c(c3c2=O)CCNC4)cc1C`: the survival was inactive: 84%.

As to `O=C(Cn1ncc2c3ccccc3n(Cc3cccc(Cl)c3)c2c1=O)N1CCCCC1`, the survival is inactive: 75%.

On to `COc1ccc(CN2C(=O)c3ccccc3C2C(=O)NC2CCCCCC2)c(OC)c1` (configuration not stated), for which the survival was inactive: 79%.

Regarding `CN(C(=O)NCc1noc2ccccc12)c1cccc(Cl)c1`, the survival was inactive: 58%.

With `COc1ccccc1NC(=O)C1=C(C)Nc2nc(SCc3ccccc3Cl)nn2C1c1cccnc1` (configuration not stated), the survival is inactive: 189%.

Turning to `Cc1ccc2c(c1)sc1nc(=O)n(-c3cccc(Cl)c3)c(=O)n12`, the survival was inactive: 85%.

As for `CCCN1C(C(=O)c2ccccc2)=C(OC(=O)C(C)(C)C)c2ccccc2S1(=O)=O`, the survival was inactive: 53%.

Take `Cc1ccc(NC(=O)CN2CCN(C3CCCCC3)C(=O)C2=O)cc1C`: the survival is inactive: 89%.

Turning to `CCOC(=O)CSc1nc2cc3c(cc2c(=O)n1CCCCCC(=O)NCc1ccc2c(c1)OCO2)OCO3`, the survival is inactive: 70%.

Turning to `CCCCN(C)C(=O)c1ccc2c(c1)N(Cc1cccc(Cl)c1)C(=O)c1ccccc1S2=O` (configuration not stated), the survival is inactive: 99%.

With `Cc1cc(C)cc(NC(=O)N2CCN(C)c3ncccc32)c1`, the survival was inactive: 79%.

As for `Cc1ccc2c(CC(=O)Nc3ccc(S(=O)(=O)Nc4nc(C)cc(C)n4)cc3)coc2c1`, the survival was inactive: 61%.

`COc1cc(C2Nc3ccccc3-c3nnc(SCc4ccc(Cl)cc4)nc3O2)ccc1OCC(=O)O` (configuration not stated): the survival was inactive: 74%.

For `CCc1cccc(C)c1NC(=O)C(CC)Sc1nc2ccncc2[nH]1` (configuration not stated), the survival is inactive: 124%.

Take `CCCCc1nn2c(=O)cc(COC(=O)c3ccc(NC(=O)c4cccc(OC)c4)cc3)nc2s1`: the survival is inactive: 102%.

On to `CCCN1CCN(CC2=C(C(=O)OCC)C(c3cccc(OC)c3OC)NC(=O)N2)CC1` (configuration not stated), for which the survival was inactive: 94%.

On to `COc1ccc(CN2CCN(c3ncnc4sc5c(c34)CCCC5)CC2)cc1F`, for which the survival was active: 33%.

`CSc1ncc(C(=O)NCc2ccccc2Cl)c(C(F)(F)F)n1`: the survival is inactive: 89%.

`Cc1ccc(NC(=O)N2CCc3c(sc4c3CCCC4)C2c2ccccc2)cc1F` (configuration not stated): the survival was inactive: 102%.

Consider `Cc1ccc(OCCSc2nc3ccccc3n2CC(=O)N2CCCCC2)cc1C`, for which the survival is active: 46%.

In the case of `COC(=O)c1ccccc1NC(=O)CCn1nc(C)c2c(C)n(-c3ccccc3)nc2c1=O`, the survival was inactive: 75%.

For `CC(=O)c1cccc(Nc2cc(C)nc3nc(-c4ccccc4C)nn23)c1`, the survival was inactive: 90%.

On to `Cc1ccc(CNC(=O)C2CCCN(c3nc4c(C)cc(C)cc4s3)C2)cc1` (configuration not stated), for which the survival is inactive: 94%.

With `O=C(Nc1ccc(NC(=O)c2cccs2)cc1)c1ccc(Cl)cc1`, the survival is inactive: 70%.

Turning to `COC(=O)c1ccccc1NC(=O)Cn1ncc2c(C)n(Cc3ccc(F)cc3)c(C)c2c1=O`, the survival is inactive: 52%.

With `CCOc1ccc(CNC(=O)CN2C(=O)CSc3ccc(S(=O)(=O)N4CCOCC4)cc32)cc1OC`, the survival is inactive: 73%.

As for `Cn1c(=O)cc(OCC(=O)N2CCN(c3ccccc3F)CC2)c2ccccc21`, the survival is inactive: 82%.

Consider `Cc1cc2oc(C(=O)N(Cc3ccc(N(C)C)cc3)CC3CCCO3)c(C)c2cc1C` (configuration not stated), for which the survival was inactive: 54%.

For `O=C(CCCCn1c(=O)c2ccccc2n(Cc2ccccc2F)c1=O)NCc1ccc2c(c1)OCO2`, the survival is inactive: 120%.

With `O=C(NCc1ccc(Cl)cc1)C1(c2cccs2)CCOCC1`, the survival was inactive: 80%.

Regarding `COc1ccc(-c2noc(-c3cc(C(C)C)[nH]n3)n2)cc1`, the survival is inactive: 65%.

With `CCN1CCc2c(sc(NC(=O)CSc3ccccc3)c2-c2nc3ccccc3s2)C1`, the survival was active: -5%.

As to `Cc1cc(C(F)(F)F)c(C#N)c(SCC(=O)C(C)(C)C)n1`, the survival was inactive: 79%.

For `COc1ccc(CNC(=O)CCc2nc3cccnc3n2Cc2ccc(OC)cc2)cc1`, the survival is inactive: 80%.

`O=C(Cn1cc(S(=O)(=O)Cc2cccc(Cl)c2)c2ccccc21)Nc1ccc(F)c(Cl)c1`: the survival is inactive: 82%.

As to `CCCCOc1ccc(Cn2c(=O)oc3ccccc32)cc1`, the survival is inactive: 127%.

As for `Cc1ccccc1Cc1c(C)nc2c(-c3ccccc3)c(C)[nH]n2c1=O`, the survival was active: -3%.

For `O=C(COc1ccccc1)NCCc1csc(-c2ccc(F)cc2)n1`, the survival is inactive: 99%.

Consider `C=CCN1C(=O)C(C(=O)Nc2ccc(C)cc2)C2CC1(C)Oc1ccccc12` (configuration not stated), for which the survival is inactive: 67%.

Turning to `CN(C(=O)Cn1c(=O)n(Cc2ccc(C(=O)NCc3ccc4c(c3)OCO4)cc2)c(=O)c2ccccc21)c1ccccc1`, the survival is inactive: 63%.

On to `Clc1cc(Cl)c2nsnc2c1`, for which the survival is inactive: 97%.

As to `COc1ccc(C2CC(=O)c3cc(-c4nc(-c5cccc([N+](=O)[O-])c5)cs4)c(=O)n(-c4ccccc4C)c3C2)cc1` (configuration not stated), the survival is inactive: 158%.

With `O=C(NCc1ccccc1F)c1cccc(NC(=O)N2CCSc3ncccc32)c1`, the survival was inactive: 85%.

Regarding `Cc1ccc(-c2cc(NC(=O)COc3c(C)cc(C)cc3C)on2)cc1`, the survival was inactive: 67%.

These data come from PubChem BioAssay AID463173 (ICCB-Longwood Screening Facility, Harvard Medical School, 2010).
